Test results: PubChem BioAssay (NCI)
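96-well plates; 48 h exposure; 5 concentrations. Endpoints by linear interpolation between flanking doses. Not reached: highest tested concentration assigned. GI50: concentration for 50% inhibition of growth. TGI is the concentration that stops growth completely.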

Tested on: NCI-H322M lung
Assay: NCI-60 cell line screen, 48 h

| SMILES | GI50 | TGI |
| --- | --- | --- |
| O=C(Nc1nc2ccc([N+](=O)[O-])cc2s1)Nc1ccccc1F | 10.6 µM | 80.6 µM |
| CC(=C(c1ccc(OCCCN(C)C)cc1)c1ccc(OCCCN(C)C)cc1)c1ccccc1 | 0.775 µM | 3.27 µM |
| COc1ccc(C(=O)/C=C/c2cccc(Cl)c2Cl)cc1S(N)(=O)=O | 2.8 µM | 11.7 µM |
